{
  "source": "paper PMC4336329",
  "about": "(PLoS ONE, 2015)",
  "note": "Hit rate of the full screen: of about 310,000 compounds, about 14,000 (4.5%) showed an effect of 50% or more. The effect is printed as a negative number. The list shows a part of the results.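 Note: peak tail current of the secondary pulse compared with the same well before compound.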",
  "data": [
    {"target": "human ether-à-go-go-related gene (hERG) potassium channel (human, UniProt Q12809)", "sequence (Q12809 whole entry, looked up)": "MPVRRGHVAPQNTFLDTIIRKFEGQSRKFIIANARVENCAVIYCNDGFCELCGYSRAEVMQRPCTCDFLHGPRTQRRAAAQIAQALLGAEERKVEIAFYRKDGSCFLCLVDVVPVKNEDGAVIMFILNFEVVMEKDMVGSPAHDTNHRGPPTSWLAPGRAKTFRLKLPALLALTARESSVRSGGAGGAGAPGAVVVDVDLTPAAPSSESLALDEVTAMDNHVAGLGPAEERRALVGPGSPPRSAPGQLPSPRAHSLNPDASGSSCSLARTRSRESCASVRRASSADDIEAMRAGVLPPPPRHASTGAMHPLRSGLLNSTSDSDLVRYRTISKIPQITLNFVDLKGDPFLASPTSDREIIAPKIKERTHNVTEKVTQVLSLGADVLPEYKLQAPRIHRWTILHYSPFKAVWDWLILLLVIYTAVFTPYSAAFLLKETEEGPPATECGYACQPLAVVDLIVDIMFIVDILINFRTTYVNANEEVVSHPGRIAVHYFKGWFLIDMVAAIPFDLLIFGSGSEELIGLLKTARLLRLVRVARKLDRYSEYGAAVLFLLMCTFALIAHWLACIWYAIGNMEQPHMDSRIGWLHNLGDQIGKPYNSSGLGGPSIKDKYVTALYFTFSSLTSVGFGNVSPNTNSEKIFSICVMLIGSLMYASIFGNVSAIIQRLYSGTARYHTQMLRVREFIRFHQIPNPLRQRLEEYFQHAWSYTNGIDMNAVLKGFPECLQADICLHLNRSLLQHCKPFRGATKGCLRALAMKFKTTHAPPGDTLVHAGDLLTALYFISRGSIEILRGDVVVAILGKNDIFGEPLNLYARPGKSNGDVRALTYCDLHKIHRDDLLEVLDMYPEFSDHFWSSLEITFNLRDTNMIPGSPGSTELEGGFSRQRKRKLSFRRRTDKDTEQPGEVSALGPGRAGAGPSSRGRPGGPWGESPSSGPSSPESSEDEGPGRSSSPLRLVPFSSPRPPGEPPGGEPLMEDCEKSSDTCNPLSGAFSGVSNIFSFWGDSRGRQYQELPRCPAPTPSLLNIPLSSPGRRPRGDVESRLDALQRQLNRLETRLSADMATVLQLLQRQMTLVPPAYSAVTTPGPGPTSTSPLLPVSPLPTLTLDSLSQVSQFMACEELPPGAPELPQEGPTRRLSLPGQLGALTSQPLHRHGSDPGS", "experiment": "primary screen, population patch clamp on CHO cells stably expressing hERG", "units": {"hERG current change (%, negative = inhibition) at 10uM": "%"}, "values": [
      {"smiles": "CC(NC(=O)CN(C)Cc1nc2ccccc2c(=O)[nH]1)c1ccccc1", "note": "(centres unmarked)", "hERG current change (%, negative = inhibition) at 10uM": 2.59},
      {"smiles": "Cc1cc(C)n2nc(C(=O)OCC(=O)N(C)CC(=O)Nc3ccc(F)cc3)nc2n1", "hERG current change (%, negative = inhibition) at 10uM": 5.94},
      {"smiles": "Cc1cc(C)c(N=C2C(=O)Nc3ccccc32)c(C)c1", "hERG current change (%, negative = inhibition) at 10uM": 10.5},
      {"smiles": "CCOC(=O)C1CCN(C2=C(NS(=O)(=O)c3ccc(Br)cc3)C(=O)c3ccccc3C2=O)CC1", "hERG current change (%, negative = inhibition) at 10uM": 4.23},
      {"smiles": "CCOC(=O)N/N=C/c1c[nH]c2ccccc12", "hERG current change (%, negative = inhibition) at 10uM": 3.65},
      {"smiles": "CCn1c(SCc2cc(=O)[nH]c3ccccc23)nnc1C1CC1", "hERG current change (%, negative = inhibition) at 10uM": 8.48},
      {"smiles": "CN(C)C(=O)CSc1nnc(-c2cccs2)n1-c1ccccc1", "hERG current change (%, negative = inhibition) at 10uM": 32.9},
      {"smiles": "Cc1ccc(S(=O)(=O)CCN2CCN(c3ccccn3)CC2)cc1", "hERG current change (%, negative = inhibition) at 10uM": 2.42},
      {"smiles": "O=C(CN1CCC(C(=O)c2ccc3c(c2)OCCO3)CC1)Nc1ccccc1C(F)(F)F", "hERG current change (%, negative = inhibition) at 10uM": 1.17},
      {"smiles": "CCc1ccccc1NC(=O)c1ccc(F)c(S(=O)(=O)N2CCC(C(N)=O)CC2)c1", "hERG current change (%, negative = inhibition) at 10uM": 17},
      {"smiles": "CC1CCCCC1NC(=O)CSc1nnnn1-c1ccccc1", "note": "(centres unmarked)", "hERG current change (%, negative = inhibition) at 10uM": 7.97},
      {"smiles": "Cc1cccc(C(=O)NCC(=O)NCC2COc3ccccc3O2)c1", "note": "(centres unmarked)", "hERG current change (%, negative = inhibition) at 10uM": -17.6},
      {"smiles": "CC12CCC(C/C1=N\\OC(=O)c1ccc(F)cc1)C2(C)C", "note": "(centres unmarked)", "hERG current change (%, negative = inhibition) at 10uM": -13.9},
      {"smiles": "CCOc1ccc(CN(C)C(=O)CCl)cc1", "hERG current change (%, negative = inhibition) at 10uM": -1.2},
      {"smiles": "Cc1cccc(C)c1NC(=O)C1CCCCN1C.Cl", "note": "(centres unmarked)", "hERG current change (%, negative = inhibition) at 10uM": 17.5},
      {"smiles": "Cc1cccnc1NC(=O)C(C)N1C(=O)c2ccccc2C1=O", "note": "(centres unmarked)", "hERG current change (%, negative = inhibition) at 10uM": 15},
      {"smiles": "C=CCn1c(=NC(=O)c2cccs2)sc2cccc(OC)c21", "hERG current change (%, negative = inhibition) at 10uM": 14.7},
      {"smiles": "NS(=O)(=O)c1ccc(N2N=C(c3ccc(Br)cc3)CC2c2ccc(F)cc2)cc1", "note": "(centres unmarked)", "hERG current change (%, negative = inhibition) at 10uM": 14.3},
      {"smiles": "CC1CCN(C(=O)c2cc(F)c(F)cc2Cl)CC1", "hERG current change (%, negative = inhibition) at 10uM": 7.62},
      {"smiles": "O=C(OCc1ccccc1)N1CCc2ccccc21", "hERG current change (%, negative = inhibition) at 10uM": -8.46},
      {"smiles": "O=C(NCCCN1CCOCC1)c1onc(CSc2ccccc2)c1C(=O)NCCCN1CCOCC1", "hERG current change (%, negative = inhibition) at 10uM": 4.97},
      {"smiles": "O=C(CNC(=O)c1cccs1)OCC(=O)c1ccc([N+](=O)[O-])cc1", "hERG current change (%, negative = inhibition) at 10uM": 27},
      {"smiles": "Cc1ccc(C)c(OCCCC(=O)O)c1", "hERG current change (%, negative = inhibition) at 10uM": 3.97},
      {"smiles": "COc1cc(NC(=O)C23CC4CC(C2)CC(n2nnc(C)n2)(C4)C3)c(OC)cc1Cl", "hERG current change (%, negative = inhibition) at 10uM": 4.76},
      {"smiles": "O=S(=O)(c1cnc(Cl)c(Cl)c1)N1CCN(c2ncccn2)CC1", "hERG current change (%, negative = inhibition) at 10uM": 2.85},
      {"smiles": "COc1ccc(NC(=S)N2CCCCCC2)cc1OC", "hERG current change (%, negative = inhibition) at 10uM": 22.8},
      {"smiles": "COC(=O)C1=C(c2ccc(F)cc2OCc2ccccc2)C[C@@H]2CC[C@H]1N2C(=O)NC1CCN(Cc2ccccc2)CC1", "hERG current change (%, negative = inhibition) at 10uM": 2.18},
      {"smiles": "COc1ccccc1OCC(O)CNCc1ccc2c(c1)OCO2", "note": "(centres unmarked)", "hERG current change (%, negative = inhibition) at 10uM": -24.2},
      {"smiles": "COc1cccc(CCNC(=O)CC2C(=O)NCCN2CC(C)(C)C)c1", "note": "(centres unmarked)", "hERG current change (%, negative = inhibition) at 10uM": 15.8},
      {"smiles": "COC(=O)c1ccc2c(=O)n(Cc3ccc(C(=O)NC(C)C)cc3)c(=S)[nH]c2c1", "hERG current change (%, negative = inhibition) at 10uM": 23.5},
      {"smiles": "O=C(CNC(=S)NC(=O)c1ccco1)c1ccccc1", "hERG current change (%, negative = inhibition) at 10uM": -15.3},
      {"smiles": "CC(C)C(=O)c1ccc(O)c(O)c1", "hERG current change (%, negative = inhibition) at 10uM": -2.09},
      {"smiles": "COc1cccc(NC(=O)C2CCCN(S(=O)(=O)c3cccc4cccnc34)C2)c1", "note": "(centres unmarked)", "hERG current change (%, negative = inhibition) at 10uM": -9.16},
      {"smiles": "O=S(=O)(c1ccc(N2CC=C(c3ccccc3)CC2)nc1)N1CCCC1", "hERG current change (%, negative = inhibition) at 10uM": -3.38},
      {"smiles": "Nc1[nH]c(=O)[nH]c(=O)c1N=Nc1ccc(C(=O)O)cc1", "hERG current change (%, negative = inhibition) at 10uM": 20.4},
      {"smiles": "CCCCn1c(N)c(N(CC(C)C)C(=O)CSC(C)C(=O)Nc2cc(C)on2)c(=O)[nH]c1=O", "note": "(centres unmarked)", "hERG current change (%, negative = inhibition) at 10uM": 9.14},
      {"smiles": "Cc1cc(C)c(C#N)c(SCC(=O)Nc2ccccc2C(N)=O)n1", "hERG current change (%, negative = inhibition) at 10uM": -4.85},
      {"smiles": "CC1(C)CC(N(Cc2cccs2)C(=O)c2ccco2)CCO1", "note": "(centres unmarked)", "hERG current change (%, negative = inhibition) at 10uM": -2.33},
      {"smiles": "COc1ccc(Cl)cc1NC(=O)N1CCN(C2CCCCC2)CC1", "hERG current change (%, negative = inhibition) at 10uM": -22.2},
      {"smiles": "CC(=O)c1ccccc1C(=O)N1CCCC(CCC(=O)N2CCN(c3ccccn3)CC2)C1", "note": "(centres unmarked)", "hERG current change (%, negative = inhibition) at 10uM": 17.9},
      {"smiles": "Cc1ccc(O)c(NS(=O)(=O)c2cccc3nsnc23)c1", "hERG current change (%, negative = inhibition) at 10uM": -18.1},
      {"smiles": "CCOC(=O)c1ccccc1C(=O)N1CCOCCOCCOCC1", "hERG current change (%, negative = inhibition) at 10uM": 6.35},
      {"smiles": "Cc1cc(C(=O)NCCC2=CCCCC2)c(C)o1", "hERG current change (%, negative = inhibition) at 10uM": 7.75},
      {"smiles": "COc1ccc([C@H]2CC(=O)C=C(c3ccccc3)C2)cc1OC", "hERG current change (%, negative = inhibition) at 10uM": -3.04}
    ]}
  ]
}
